For some of these results: The name of at least one read-out is uncertain. Some entries share one result that the patent states for a list of compounds.
Test system: luciferase (Luc) mRNA
Test: Luc expression, whole body bioluminescence after intravenous administration to mice
Assay type: in vivo
Settings: i.v. administration; in words
Procedure: In order to monitor how effectively various nanoparticle compositions deliver therapeutic and/or prophylactics to targeted cells, different nanoparticle compositions including a particular therapeutic and/or prophylactic (for example, a modified or naturally occurring RNA such as an mRNA) are prepared and administered to rodent populations. Mice are intravenously, intramuscularly, intraarterially, or intratumorally administered a single dose including a nanoparticle composition with a formulation such as those provided in Example 3. In some instances, mice may be made to inhale doses. Dose sizes may range from 0.001 mg/kg to 10 mg/kg, where 10 mg/kg describes a dose including 10 mg of a therapeutic and/or prophylactic in a nanoparticle composition for each 1 kg of body mass of the mouse. A control composition including PBS may also be employed.
Upon administration of nanoparticle compositions to mice, dose delivery profiles, dose responses, and toxicity of particular formulations and doses thereof can be measured by enzyme-linked immunosorbent assays (ELISA), bioluminescent imaging, or other methods. For nanoparticle compositions including mRNA, time courses of protein expression can also be evaluated. Samples collected from the rodents for evaluation may include blood, sera, and tissue (for example, muscle tissue from the site of an intramuscular injection and internal tissue); sample collection may involve sacrifice of the animals.
The efficacy of the nanoparticle compositions presented in Table 1A was evaluated with a bioluminescence study. Formulations were administered intravenously to mice (n=6) at a dosage of 0.5 mg/kg (mpk) and bioluminescence measured at 3, 6, and 24 hour time points. The standard MC3 formulation and, in some instances, a control (e.g., a PBS control) were evaluated for comparison. […] In general, flux decreased as time progressed to less than 10% of the initial flux.
(§1) Whole body and ex vivo organ bioluminescent imaging of mice: CD-1 mice were injected 15 minutes prior to the imaging timepoint intraperitoneally (IP) with 200 μL Xenolight D-luciferin K+ salt, diluted in PBS just prior to use to a concentration of 15 mg/mL. Ex vivo imaging of organs was completed within 25 minutes of luciferin administration. All images were quantified by region of interest for total flux.

With `CCCCCCCCC(C)OC(=O)CCCCCCCN(CCO)CCCCCCCOC(=O)C(CCCCCCCC)CCCCCCCC` (stereo not shown) [Compound 135, 7-((8-(Decan-2-yloxy)-8-oxooctyl)(2-hydroxyethyl)amino)heptyl 2-octyldecanoate] as the molecule, how does the “flux measured at 6 h relative to the MC3 formulation” value read?
The value was “noticeably higher”.

For `CCCCCCCCC(CCCCCCCC)OC(=O)CCCCCCCN(CCO)CCCCCCCC(=O)OC1CCC(CCCCC)CC1` (stereo not shown) [Compound 66, Heptadecan-9-yl 8-((2-hydroxyethyl)(8-oxo-8-((4-pentylcyclohexyl)oxy)octyl)amino)octanoate], which “flux measured at 6 h relative to the MC3 formulation” value is on record?
Its value is “noticeably higher”.

With `CCCCCCCCCC(=O)OCCCCCCCN(CCO)CCCCCCCC(=O)OC(CCCCCCCC)CCCCCCCC` [Compound 96, 7-((8-(Heptadecan-9-yloxy)-8-oxooctyl)(2-hydroxyethyl)amino)heptyl decanoate] as the molecule, how does the “flux measured at 6 h relative to the MC3 formulation” value read?
Its value is “noticeably higher”.

Same assay, conditions: luciferase, intravenous, relative to MC3; Table 3G

`CCCCCCCCCOC(=O)C(C)CCCCCCN(CCO)CCCCCCCOC(=O)C(CCCCCCCC)CCCCCCCC` (stereo not shown) [Compound 163, 7-((2-Hydroxyethyl)(7-methyl-8-(nonyloxy)-8-oxooctyl)amino)heptyl 2-octyldecanoate] was tested. Which “Novel lipid/MC3 ratio, 6 hr. timepoint, i.v.” value (shortened to “Novel lipid/MC3 ratio”) did it give?
The value was 3.45.

`CCCCCCCCCC(=O)OC(C)CCCCCCN(CCO)CCCCCCCC(=O)OC(CCCCCCCC)CCCCCCCC` (stereo not shown) [Compound 98, 8-((8-(Heptadecan-9-yloxy)-8-oxooctyl)(2-hydroxyethyl)amino)octan-2-yl decanoate] was tested. Which “Novel lipid/MC3 ratio” value did it give?
Its value is 3.16.

For `CCCCCCCCCOC(=O)C(C)CCCCCCN(CCO)CCCCCCCC(=O)OC(CCCCCCCC)CCCCCCCC` (stereo not shown) [Compound 164, Nonyl 8-((8-(heptadecan-9-yloxy)-8-oxooctyl)(2-hydroxyethyl)amino)-2-methyloctanoate], which “Novel lipid/MC3 ratio” value is on record?
The value was 1.24.

With `CCCCCCCCCC(=O)OC(C)CCCCCCN(CCO)CCCCCCCOC(=O)C(CCCCCCCC)CCCCCCCC` (stereo not shown) [Compound 165, 7-((7-(Decanoyloxy)octyl)(2-hydroxyethyl)amino)heptyl 2-octyldecanoate] as the molecule, how does the “Novel lipid/MC3 ratio” value read?
Its value is 2.12.

Same assay, conditions: luciferase, intravenous, relative to MC3 formulation

With `CCCCCCCCCOC(=O)CCCCCCCN(CCCCCCCC(=O)OC(CCCCCCCC)CCCCCCCC)CCCn1cc(CO)nn1` [Compound 218, Heptadecan-9-yl 8-((3-(4-(hydroxymethyl)-1H-1,2,3-triazol-1-yl)propyl)(8-(nonyloxy)-8-oxooctyl)amino)octanoate] as the molecule, how does the “Novel lipid/MC3 expression ratio, 6 hr. time point, i.v.” value (“Novel lipid/MC3 expression ratio” for short) read?
Its value is over 0.01.

`CCCCCCCCCOC(=O)CCCCCCCN(CCCO)CCCCCCCC(=O)OC(CCCCCCCC)CCCCCCCC` [Compound 19, Heptadecan-9-yl 8-((3-hydroxypropyl)(8-(nonyloxy)-8-oxooctyl)amino) octanoate] was tested. Which “Novel lipid/MC3 expression ratio” value did it give?
The value was 0.96.

How did the “Novel lipid/MC3 expression ratio” value turn out when `CCCCCCCCCOC(=O)CCCCCCCN(CCCCCCCC(=O)OC(CCCCCCCC)CCCCCCCC)CCCNC(=O)COC` [Compound 178, Heptadecan-9-yl 8-((3-(2-methoxyacetamido)propyl)(8-(nonyloxy)-8-oxooctyl)amino)octanoate] was run?
The value was 0.03.

Test system: luciferase (Luc) mRNA
Test: Luc expression in liver, lung, spleen and femur 6 hours after intravenous administration
Assay type: in vivo
Settings: mice, i.v., 0.5 mpk, in words
Procedure: The efficacy of the nanoparticle compositions presented in Table 1A was further evaluated by measuring the expression of modified luciferase in the liver, lung, spleen, and femur upon administration of a given composition. Formulations were administered intravenously to mice (n=3) at a dosage of 0.5 mpk and bioluminescence measured after 6 hours. The standard MC3 formulation and a PBS control were also tested. […] Flux in the liver was lowest for compositions including Compounds 58, 59, 137, and 141. Flux in the spleen was highest for compositions including Compounds 4, 7, 33, 34, 48, 53, 108, 129, 130, and 148, and lowest for compositions including Compounds 9, 59, 124, and 141.
as §1

With `CCCCCCCCCOC(=O)CCCCCCCN(CCO)CCCCCCCCCC(CCCCCCCC)CCCCCCCC` [Compound 153, Nonyl 8-((2-hydroxyethyl)(10-octyloctadecyl)amino)octanoate] as the molecule, how does the “Flux in the liver” value read?
The value was “comparable to that of MC3 formulations”.

Which “Flux in the liver” value does the source give for `CCCCCCCCC(CC)OC(=O)CCCCCN(CCO)CCCCCCCC(=O)OC(CCCCCCCC)CCCCCCCC` (stereo not shown) [Compound 75, Heptadecan-9-yl 8-((2-hydroxyethyl)(6-oxo-6-(undecan-3-yloxy)hexyl)amino)octanoate] here?
The value was “comparable to that of MC3 formulations”.

For `CCCCCCCCC(CCCCCCCC)OC(=O)CCCCCCCN(CCO)CCCC(=O)OC1CCC(CCCCC)CC1` (stereo not shown) [Compound 67, Heptadecan-9-yl 8-((2-hydroxyethyl)(4-oxo-4-((4-pentylcyclohexyl)oxy)butyl)amino)octanoate], which “Flux in the liver” value is on record?
Its value is “comparable to that of MC3 formulations”.

Which “Flux in the liver” value does the source give for `CCCCCCCCC(CCC)OC(=O)CCCN(CCO)CCCCCCCC(=O)OC(CCCCCCCC)CCCCCCCC` (stereo not shown) [Compound 74, Heptadecan-9-yl 8-((4-(dodecan-4-yloxy)-4-oxobutyl)(2-hydroxyethyl)amino)octanoate] here?
Its value is “comparable to that of MC3 formulations”.

Which “Flux in the liver” value does the source give for `CCCCCCCCC(C)OC(=O)CCCCCCCN(CCO)CCCCCCCC(=O)N(CCCCCCCC)CCCCCCCC` (stereo not shown) [Compound 130, Decan-2-yl 8-((8-(dioctylamino)-8-oxooctyl)(2-hydroxyethyl)amino)octanoate] here?
The value was “comparable to that of MC3 formulations”.

`CCCCCCCCC(CCCCCCCC)OC(=O)CCCCCCCN(CCO)CCCCCC(=O)OC1CCC(CCCCC)CC1` (stereo not shown) [Compound 68, Heptadecan-9-yl 8-((2-hydroxyethyl)(6-oxo-6-((4-pentylcyclohexyl)oxy)hexyl)amino)octanoate] was tested. Which “Flux in the liver” value did it give?
Its value is “comparable to that of MC3 formulations”.

For `CCCCCCCCC(CCCCCCCC)OC(=O)CCCCCCCN(CCO)CCCCCCCC(=O)OC(CCCCCCCC)C1CC1` (stereo not shown) [Compound 65, 1-Cyclopropylnonyl 8-((8-(heptadecan-9-yloxy)-8-oxooctyl)(2-hydroxyethyl)amino)octanoate], which “Flux in the liver” value is on record?
The value was “comparable to that of MC3 formulations”.

How did the “Flux in the liver” value turn out when `CCCCCCCCC(CC)OC(=O)CCCCCCCN(CCO)CCCCCCCC(=O)OC(CCCCCCCC)CCCCCCCC` (stereo not shown) [Compound 49, heptadecan-9-yl 8-((2-hydroxyethyl)(8-oxo-8-(undecan-3-yloxy)octyl)amino)octanoate] was run?
Its value is “comparable to that of MC3 formulations”.

For `CCCCCCCCC(CCC)OC(=O)CCCCCCCN(CCO)CCCCCCCC(=O)OC(CCCCCCCC)CCCCCCCC` (stereo not shown) [Compound 50, dodecan-4-yl 8-((8-(heptadecan-9-yloxy)-8-oxooctyl)(2-hydroxyethyl)amino)octanoate], which “Flux in the liver” value is on record?
Its value is “comparable to that of MC3 formulations”.

`CCCC/C=C\CCC(CC/C=C\CCCC)OC(=O)CCCCCCCN(CCO)CCCCCCCC(=O)OCCCCCCCCC` [Compound 60, (5Z,12Z)-Heptadeca-5,12-dien-9-yl 8-((2-hydroxyethyl)(8-(nonyloxy)-8-oxooctyl)amino)octanoate] was tested. Which “Flux in the liver” value did it give?
Its value is “comparable to that of MC3 formulations”.

How did the “Flux in the liver” value turn out when `CCCCCCCCC(C)OC(=O)CCCCCN(CCO)CCCCCCCC(=O)OC(CCCCCCCC)CCCCCCCC` (stereo not shown) [Compound 122, Heptadecan-9-yl 8-((6-(decan-2-yloxy)-6-oxohexyl)(2-hydroxyethyl)amino)octanoate] was run?
The value was “comparable to that of MC3 formulations”.

`CCCCCCCCCOC(=O)CCCCCCCN(CCO)CCCCCCCC(=O)OC(CCC)CCCCCCCC` (stereo not shown) [Compound 34, dodecan-4-yl 8-((2-hydroxyethyl)(8-(nonyloxy)-8-oxooctyl)amino) octanoate] was tested. Which “Flux in the liver” value did it give?
Its value is “comparable to that of MC3 formulations”.

Which “Flux in the liver” value does the source give for `CCCCCCCCC(CCCCCCCC)OC(=O)CCCCCCCN(CCO)CCCC(=O)OCC1CC1CCCCCC` (stereo not shown) [Compound 55, heptadecan-9-yl 8-((4-((2-hexylcyclopropyl)methoxy)-4-oxobutyl)(2-hydroxyethyl)amino)octanoate] here?
Its value is “comparable to that of MC3 formulations”.

For `CCCCCCCC/C=C\CCCCCCCCN(CCO)CCCCCCCC(=O)OC(CCCCCCCC)CCCCCCCC` [Compound 31, heptadecan-9-yl (Z)-8-((2-hydroxyethyl)(octadec-9-en-1-yl)amino) octanoate], which “Flux in the liver” value is on record?
The value was “comparable to that of MC3 formulations”.

With `CCCCCCCCC(CCCCCCCC)OC(=O)CCCCCCCN(CCO)CCCCCCCCC1CC1CCCCCCCC` (stereo not shown) [Compound 47, heptadecan-9-yl 8-((2-hydroxyethyl)(8-(2-octylcyclopropyl)octyl)amino)octanoate] as the molecule, how does the “Flux in the liver” value read?
Its value is “comparable to that of MC3 formulations”.

With `CCCCCCCCC(CCCCCCCC)OC(=O)CCCCCCCN(C)CCCCCCCCCCCC(=O)OCCCCC` [Compound 150, Pentyl 12-((8-(heptadecan-9-yloxy)-8-oxooctyl)(methyl)amino)dodecanoate] as the molecule, how does the “Flux in the liver” value read?
Its value is “comparable to that of MC3 formulations”.

For `CCCCCCCCCCCCCCN(CCO)CCCCCCCC(=O)OC(CCCCCCCC)CCCCCCCC` [Compound 2, Heptadecan-9-yl 8-((2-hydroxyethyl)(tetradecyl)amino)octanoate], which “Flux in the liver” value is on record?
Its value is “comparable to that of MC3 formulations”.

For `CCCCCCCCCOC(=O)CCCCCCCN(CCO)CCCCCCCC(=O)OC(CCCCCC)CCCCCC` [Compound 56, nonyl 8-((2-hydroxyethyl)(8-oxo-8-(tridecan-7-yloxy)octyl)amino) octanoate], which “Flux in the liver” value is on record?
Its value is “comparable to that of MC3 formulations”.

From US12263248B2, “Compounds and compositions for intracellular delivery of therapeutic agents” (ModernaTX, Inc., priority 2018, dated 2025)
